# Measured values as given in PubChem BioAssay (NCATS).
# The inconclusive results got no clear call from the source; some entries with a clear call stand among them for comparison. Potencies of inconclusive entries are doubtful fits and often do not repeat. Active and inactive are the calls of the source. Calls follow the shape of the dose curve; as a rule, active = well fitted curve in the direction sought with a large enough effect; inconclusive = small, poorly fitted or top-dose-only effect, or another doubt; inactive = no such curve, though single readings can be large; an effect the other way counts as inactive or inconclusive.
# Molecular target: Ubiquitin carboxyl-terminal hydrolase 2 (Homo sapiens) (UniProt O75604)
# Test: qHTS for Inhibitors of Ubiquitin-specific Protease USP2a Using CHOP2 as the Reporter: K484 Substrate (AID 652173);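 also: cleavage of internally quenched K48 di-ubiquitin substrate measured as rising fluorescence over time; nearly all actives have a fitted effect of over 70% in size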
# Settings: USP2 cleavage of DiUb K48 IQF substrate, fluorescence; series mostly up to 57.5 µM; activity change, negative = inhibition: at the top concentration
# In short: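 Kinetic fluorescence (Ex 525/Em 598) tracked cleavage of an internally quenched K48 di-ubiquitin substrate, added as a 100 nM solution. The enzyme was added as a 5 nM USP2 solution before compound pinning, with no-enzyme controls. Buffer: Tris pH 8, beta-mercaptoethanol, CHAPS.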
# Potency is read from the fitted curve at half-maximal effect; tags tell the direction and shape of the fitted curve.
# Sequence of UniProt O75604 (O75604 whole entry, looked up): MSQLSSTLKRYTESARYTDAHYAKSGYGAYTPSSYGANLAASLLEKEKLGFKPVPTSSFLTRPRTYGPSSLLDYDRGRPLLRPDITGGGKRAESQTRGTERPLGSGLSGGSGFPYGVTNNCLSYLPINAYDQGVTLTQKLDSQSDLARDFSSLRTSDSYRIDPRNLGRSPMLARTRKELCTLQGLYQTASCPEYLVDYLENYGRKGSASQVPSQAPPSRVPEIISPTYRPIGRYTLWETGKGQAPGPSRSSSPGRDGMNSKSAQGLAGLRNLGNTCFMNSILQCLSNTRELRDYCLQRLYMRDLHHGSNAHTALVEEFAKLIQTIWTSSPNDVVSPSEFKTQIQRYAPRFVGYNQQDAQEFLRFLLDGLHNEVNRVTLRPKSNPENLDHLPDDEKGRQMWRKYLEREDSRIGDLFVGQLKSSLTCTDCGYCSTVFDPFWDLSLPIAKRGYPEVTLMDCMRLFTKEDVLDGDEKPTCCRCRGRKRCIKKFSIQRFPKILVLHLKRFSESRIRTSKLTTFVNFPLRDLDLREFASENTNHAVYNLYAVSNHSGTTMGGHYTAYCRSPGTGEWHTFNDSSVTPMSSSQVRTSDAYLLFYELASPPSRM
SMILES,Potency,"activity change, negative = inhibition"
Cc1ccc(-c2cc(C(=O)Nc3ccc(C(=O)O)cc3)c3ccccc3n2)cc1C,active: 21.7 µM,
Cc1ccc(S(=O)(=O)Nc2cnccc2C(=O)Nc2ccccc2)cc1,"inconclusive: 17.2 µM [inhibitor, partial curve, poor fit]",
Cc1ccc(-c2cc(C(=O)Nc3ccccn3)c3ccccc3n2)cc1C,"inconclusive: 24.3 µM [inhibitor, partial curve]",
Cc1ccc(-c2cc(C(=O)NC3CCCCC3)c3ccccc3n2)cc1C,"inconclusive: 19.3 µM [inhibitor, partial curve]",
O=C(O)c1cccc(S(=O)(=O)Nc2nccs2)c1,,inactive: -8.23%
Cc1cccc(NC(=O)c2cc(-c3ccc(C)c(C)c3)nc3ccccc23)c1,,inactive: -29%
O=C(Nc1ccc(S(=O)(=O)Nc2nccs2)cc1)C1CCC2(CC1)CC2,"inconclusive: 24.3 µM [inhibitor, partial curve, poor fit]",
CCCCC(=O)N1CCC(C(=O)Nc2ccc([S+](=O)([O-])Nc3nccs3)cc2)CC1,,inactive: -5.77%
Cc1ccc(NC(=O)c2cc(-c3ccc(C)c(C)c3)nc3ccccc23)cc1,"inconclusive: 21.7 µM [inhibitor, partial curve]",
Cc1ccc(S(=O)(=O)Nc2cnccc2C(=O)Nc2ccc(-n3cncn3)cc2)cc1,"inconclusive: 24.3 µM [inhibitor, partial curve]",
O=c1[nH]c(CN2CCOCC2)nc2sc3c(c12)CCC3,,inactive: 3.46%
Cc1ccc(-c2cc(C(=O)Nc3cccc(Cl)c3)c3ccccc3n2)cc1C,"inconclusive: 21.7 µM [inhibitor, partial curve]",

# Molecular target: Tyrosine-protein kinase Yes (Homo sapiens) (UniProt P07947)
# Test: qHTS for small molecule inhibitors of Yes1 kinase: Primary Screen (AID 686947); also: nearly all actives have a fitted effect of over 60% in size;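 as to activity change, negative = inhibition: plate controls were DMSO with enzyme for no effect and no-enzyme DMSO wells for full effect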
# Settings: Yes1 kinase biochemical qHTS inhibition; activity change, negative = inhibition: at 76.9 µM (top of the series)
# In short: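 In this qHTS format, inhibition is expressed relative to DMSO controls with enzyme (maximum) and without enzyme (minimum). The 60 min room-temperature reaction uses 0.1 mM ATP, with ADP detected by luminescence.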
# Sequence of UniProt P07947 (P07947 whole entry, looked up): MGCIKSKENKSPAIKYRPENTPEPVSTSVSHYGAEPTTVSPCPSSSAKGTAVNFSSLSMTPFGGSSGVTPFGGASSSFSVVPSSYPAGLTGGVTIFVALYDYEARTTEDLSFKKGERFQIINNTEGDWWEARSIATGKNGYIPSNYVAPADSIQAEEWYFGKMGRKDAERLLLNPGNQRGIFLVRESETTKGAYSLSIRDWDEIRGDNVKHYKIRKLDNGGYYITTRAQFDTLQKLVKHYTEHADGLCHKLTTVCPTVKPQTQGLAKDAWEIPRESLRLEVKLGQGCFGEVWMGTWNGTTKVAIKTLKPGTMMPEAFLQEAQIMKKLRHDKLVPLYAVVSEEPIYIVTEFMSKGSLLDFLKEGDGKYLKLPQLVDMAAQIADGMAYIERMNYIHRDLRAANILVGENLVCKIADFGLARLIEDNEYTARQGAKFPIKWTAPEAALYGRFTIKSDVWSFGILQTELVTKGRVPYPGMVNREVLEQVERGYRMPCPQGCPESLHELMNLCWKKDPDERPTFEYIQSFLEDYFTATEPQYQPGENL
SMILES,Potency,"activity change, negative = inhibition"
CCS(=O)(=O)c1ccc(OC)c(Nc2ncc(-c3cccc(F)c3)o2)c1,active: 0.146 µM,
CCCN1CCC(Oc2cc(Nc3nc(Nc4cccc(F)c4C(N)=O)c4cc[nH]c4n3)c(OC)cc2Cl)CC1,"inconclusive: 32.8 µM [inhibitor, partial curve]",
CCN1CCC(CC(=O)Nc2n[nH]c3nnc(-c4cccc(F)c4F)cc23)CC1,"inconclusive: 41.2 µM [inhibitor, single point]",
CNC(=O)c1cncc(C=Cc2ccccc2Cl)c1,active: 8.23 µM,
COc1ccc2c(-c3ccnc(Nc4cccc(OC(F)(F)F)c4)n3)cnn2n1,active: 26 µM,
CCOc1nccc2c1nc(-c1nonc1N)n2CC,,inactive: 28.2%
c1ccc(Nc2ncc(-c3ccccc3)o2)cc1,"inconclusive: 6.54 µM [inhibitor, full curve]",
CS(=O)(=O)CCNCc1nc(-c2ccc3ncnc(Nc4ccc(OCc5cccc(C(F)(F)F)c5)cc4)c3c2)cs1,"inconclusive: 20.7 µM [inhibitor, partial curve]",
CCc1cccc(CC)c1C=Cc1cncc(C(=O)NC)c1,active: 26 µM,
CCN1CCC(C(=O)Nc2n[nH]c3nnc(-c4cccc(F)c4F)cc23)CC1,"inconclusive: 23.2 µM [inhibitor, partial curve]",
CNC(=O)c1cncc(C=Cc2c(Cl)cccc2Cl)c1,active: 0.823 µM,
Cc1ccc(O)cc1Nc1ccnc2cc(-c3ccccn3)ccc12,active: 0.0073 µM,
Fc1ccc(-c2c(-c3ccncc3)nc3n2CCS3)cc1,"inconclusive: 23.2 µM [inhibitor, partial curve]",
c1cc(-c2cnn3nc(N4CCOCC4)ccc23)nc(NC2CC2)n1,"inconclusive: 23.2 µM [inhibitor, partial curve]",
CC(=Nc1ccc(S(N)(=O)=O)cc1)c1c(O)[nH]c2ccccc12,"inconclusive: 7.33 µM [inhibitor, full curve]",
O=S(=O)(CCOCc1ccc(-c2ccc3ncnc(Nc4ccc(OCc5cccc(F)c5)c(Cl)c4)c3c2)o1)c1ccccc1,"inconclusive: 51.9 µM [inhibitor, single point]",
Cc1ccc(NC(=O)c2ccoc2)cc1-c1ccc(C(=O)NCC2CC2)cc1,"inconclusive: 51.9 µM [inhibitor, partial curve, poor fit]",
Cn1c(-c2nonc2N)nc2cnccc21,,inactive: 7.06%
CNC(=O)c1cncc(C=Cc2ccccc2C)c1,"inconclusive: 7.33 µM [inhibitor, partial curve]",
NS(=O)(=O)c1ccc(-c2ccc3c(NC(=O)C4CC4)n[nH]c3c2)cc1,active: 1.84 µM,
CS(=O)(=O)Nc1ccc(-c2ccc3c(NC(=O)C4CC4)n[nH]c3c2)cc1,active: 20.7 µM,
